Results from ChEMBL document CHEMBL4888484, “Replenishing the malaria drug discovery pipeline: Screening and hit evaluation of the MMV Hit Generation Library 1 (HGL1) against asexual blood stage Plasmodium falciparum ,using a nano luciferase reporter read-out” (2022).
The campaign covered roughly 150,000 compounds. About 540 (0.36%) showed an effect of 50% or more. Some of the results follow.

test system: Plasmodium falciparum; assay: Primary screen in NF54 nanoGlo assay, in single point, at 2uM, 72h; a lower Z score goes with more inhibition; assay type: functional, Erythrocyte; conditions: timepoint 72 hour

SMILES | % Inhibition [%] | Z score
O=C(O)C(c1cccc(Cl)c1)N1CCC(Cc2nccs2)C1 (centres undefined) | -1 | 0.1
CCN(C)c1ccccc1CNC(=O)COCc1nc(C)no1 | -1 | 0.09
O=C(c1cccc(S(=O)(=O)N2CCCC2)c1)n1nnc2ccccc21 | -9 | 1
O=C(c1cc(Cl)c2c(c1)OCCCO2)N(C[C@H]1CCOC1)c1ccccc1 | -5 | 0.62
Cc1ccc(C(=O)N2CCC(N3CCCCC3)CC2)c(C2CCN(C(=O)Nc3cccc(Cl)c3)CC2)n1 | -1 | 0.12
CCN1CCN(S(=O)(=O)c2ccc(C)cc2C)c2cccnc21 | -11 | 1.31
Cc1cc(C)cc(NC(=O)N2CCC(OC3CCN(S(C)(=O)=O)CC3)CC2)c1 | -9 | 1.08
O=C(CCS(=O)(=O)c1ccccc1)N1C[C@H](O)[C@@H](F)C1 | -12 | 1.35
CN(C)C[C@@H]1[C@H]2CN(C(=O)c3cc4ccccc4s3)C[C@@H]12 | -2 | 0.29
COC1CC(NCc2cc(C)no2)C12CCC2 (centres undefined) | -1 | 0.11
Cc1cc(N2C[C@H](OC(C)C)[C@@H](O)C2)nc(N)n1 | 11 | -1.81
Cc1nn(C)c(C)c1CC(=O)Nc1ncccc1O | -8 | 1.43
O=S(=O)(CC1CCCC1)NCCCN1CCCC[C@@H]1CO | -12 | 1.13
Cc1coc(C(=O)N2CCC[C@H](NCc3ccccc3)C2)c1C | 1 | -0.2
O=C1c2ccccc2C(=O)N1C1CCC(N[C@H]2CCOC3(CCCC3)C2)CC1 (some centres undefined) | -9 | 1.52
COc1cc(OC)cc(C(=O)N2CC[C@@]3(CCCN(Cc4[nH]cnc4C)C3)C2)c1 | -2 | 0.33
CC(C)c1nccc(N2CCC[C@H](n3cc(CO)nn3)C2)n1 | -11 | 1.79
Cc1csc(C2(NC(=O)CCc3cnn(C)c3)CCCCCC2)n1 | 13 | -1.7
CC(C)OC1(C(=O)N2C[C@@H]3OCCN(C)[C@@H]3C2)CCOC1 (some centres undefined) | -36 | 4.22
N#CCN(CC#N)C(=O)Cc1c(F)cccc1Cl | -6 | 1.15
Cc1c(Cl)cccc1NC(=O)C(C)N1CCC(C2(C)NC(=O)NC2=O)CC1 (centres undefined) | -4 | 0.49

SMILES | % Inhibition [%] | Z score
Fc1ccccc1-c1cc(NCCCn2cncn2)n2nccc2n1 | -5 | 0.88
COc1cc(O)ccc1[C@H]1Nc2ccccc2-n2c(-c3ccccc3)c3c(=O)n(C)c(=O)n(C)c3c21 | 4 | -0.71
Cc1ccc(CC2(CCC(=O)N3CCCC(C(=O)c4ccccc4)C3)CCC(=O)N2)cc1 (centres undefined) | 14 | -1.82
CCCCNC(=O)Cc1noc(CCCOc2cccc(C)c2)n1 | -18 | 2.79
COc1cccc2c1CN(Cc1n[nH]c3c1COCC3)CC2 | 0 | 0.03
CCc1noc(CCNC(=O)N(C)CCCN2CCCCCC2)n1 | 10 | -1.4
CO[C@H]1CCCOC12CCN(C(=O)c1cn3ccccc3n1)CC2 | -16 | 1.62
Cc1nnnn1CCc1ncnn1Cc1c(F)cccc1Cl | -11 | 1.96
CC[C@@H](CO)NC(=O)NC1CCOC(C)C1 (some centres undefined) | 2 | -0.23
CN(C)c1nc(CN[C@@H](Cc2ccccc2)c2ccccc2)ns1 | -6 | 0.72
Cc1ccc(-n2nc(C)c(CC(=O)N3CCN(c4cccc(C)c4C)CC3)c2C)cc1C | -11 | 1.37
O=C(CCc1ccccc1)N1CC(Oc2nccs2)C1 | -21 | 3.65
CCOC(=O)c1sc2nc(-c3cccc(Cl)c3)c(NCc3ccc(C)cc3)n2c1C | 8 | -0.85
CN(CCCCN1CCOCC1)C(=O)c1ccc(-c2ccncc2)cc1 | -1 | 0.11
CN1Cc2ccccc2C[C@H]1C(=O)NCc1ccc(S(N)(=O)=O)cc1 | -12 | 1.58
COCC1(NC(=O)[C@@H](N)CC2CCCCC2)CCCC1 | 0 | -0.03
CCn1nc(C)c(C(=O)NC(C)(C)C2CCC2)n1 | -7 | 1.47
COc1cc(C(F)(F)F)nc(N2CCCC(=O)[C@@H]2C)n1 | -10 | 1.17
COc1ccnc([C@H](C)NCc2scnc2C)c1 | 0 | -0.04
CCCCN(Cc1cccn1Cc1ccc(Br)cc1)C(=O)CN(CCC(C)C)C(=O)c1ccc2c(c1)OCO2 | -5 | 0.75
COc1ccc(OC)c(S(=O)(=O)N2CC[C@@H]3COCCN(Cc4ccccc4)[C@@H]3C2)c1 | -11 | 1.45
